# Measurements from PubChem BioAssay AID504339 (National Center for Advancing Translational Sciences (NCATS), 2011).
# Out of some 390,000 compounds screened, about 17,000 (4.4%) were called active. Inconclusive results, whose numbers are uncertain, are shown with a selection of clear calls. Calls follow the shape of the dose curve; as a rule, active = well fitted inhibition curve with a large enough effect; inconclusive = small, poorly fitted or top-dose-only effect; inactive = no such curve, though single readings can be large or run the other way. Potencies beside an inconclusive call are fits to weak or partial responses and may not hold up.
# Biological target: Lysine-specific demethylase 4A (Homo sapiens) (UniProt O75164)
# Test: qHTS Assay for Inhibitors of JMJD2A-Tudor Domain; also: nearly all actives have a fitted effect of over 50% in size
# Settings: AlphaScreen JMJD2A-Tudor / H3K4me3 peptide binding; activity change, negative = inhibition: at 114 µM (top of the series)
# % is scaled to controls: 0 for no effect and ±100 for the full control effect; potency is read from the fitted curve at half-maximal effect; tags tell the direction and shape of the fitted curve.
# Sequence of UniProt O75164 (O75164 whole entry, looked up, the tested form may be a part): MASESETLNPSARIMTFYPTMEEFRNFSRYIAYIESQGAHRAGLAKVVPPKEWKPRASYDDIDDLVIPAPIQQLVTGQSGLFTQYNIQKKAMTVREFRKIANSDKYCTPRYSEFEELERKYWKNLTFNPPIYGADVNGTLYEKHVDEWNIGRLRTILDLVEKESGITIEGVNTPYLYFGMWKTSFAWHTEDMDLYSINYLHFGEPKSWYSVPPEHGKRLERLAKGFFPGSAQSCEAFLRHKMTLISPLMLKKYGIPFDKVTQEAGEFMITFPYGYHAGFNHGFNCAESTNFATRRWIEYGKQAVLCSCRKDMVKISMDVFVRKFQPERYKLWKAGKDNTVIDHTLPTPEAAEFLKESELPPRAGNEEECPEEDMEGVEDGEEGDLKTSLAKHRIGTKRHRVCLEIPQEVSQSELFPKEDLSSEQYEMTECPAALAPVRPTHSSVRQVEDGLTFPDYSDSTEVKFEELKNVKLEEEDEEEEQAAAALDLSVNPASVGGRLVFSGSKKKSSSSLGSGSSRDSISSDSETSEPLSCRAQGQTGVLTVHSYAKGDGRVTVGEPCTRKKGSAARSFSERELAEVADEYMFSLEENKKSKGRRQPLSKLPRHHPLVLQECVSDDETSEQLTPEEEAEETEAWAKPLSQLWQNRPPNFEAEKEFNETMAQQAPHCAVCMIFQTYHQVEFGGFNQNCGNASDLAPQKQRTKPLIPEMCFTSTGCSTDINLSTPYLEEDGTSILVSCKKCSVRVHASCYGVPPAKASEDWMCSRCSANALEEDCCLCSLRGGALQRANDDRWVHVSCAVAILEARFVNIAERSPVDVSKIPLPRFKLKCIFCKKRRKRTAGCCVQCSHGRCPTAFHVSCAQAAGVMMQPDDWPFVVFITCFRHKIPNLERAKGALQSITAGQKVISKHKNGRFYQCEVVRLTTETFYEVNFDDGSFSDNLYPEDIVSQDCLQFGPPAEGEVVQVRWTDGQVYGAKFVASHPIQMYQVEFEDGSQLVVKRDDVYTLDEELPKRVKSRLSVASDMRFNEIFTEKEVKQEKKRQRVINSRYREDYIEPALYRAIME
Structure (SMILES),"activity change, negative = inhibition",Potency
Cc1ccc(Sc2ccc([N+](=O)[O-])cc2[N+](=O)[O-])nc1,inconclusive: -49.6% [inhibitor],–
COc1ccc(-c2cc(C(F)(F)F)nc(-n3ccnc3C)n2)cc1,inactive: -5.52%,–
COCCCNC(=S)Nc1ccc(S(=O)(=O)Nc2cc(OC)nc(OC)n2)cc1,–,"inconclusive: 89.1 µM [inhibitor, single point]"
CC(=O)Nc1ccc(NC(=O)CSc2nc3c(=O)n(C)c(=O)n(C)c3n2C)cc1,–,"inconclusive: 39.8 µM [inhibitor, single point]"
CCc1cccc2c(/C=N/NC(=O)c3cccc(S(=O)(=O)Nc4ccccc4Cl)c3)c[nH]c12,–,"inconclusive: 44.7 µM [inhibitor, partial curve]"
CCCN(C(=O)c1ccc(S(=O)(=O)N2CCCC2)cc1)C1CCS(=O)(=O)C1 (stereo not drawn),inactive: 0.676%,–
CC(=O)Nc1ccc(S(=O)(=O)NNC(=O)COc2ccc(C(C)(C)C)cc2)cc1,–,"inconclusive: 89.1 µM [inhibitor, partial curve]"
COc1ccc(C(=O)O/N=C2\CCCc3nonc32)cc1,inactive: 7.14%,–
Cc1nn(-c2ccccc2)c2ncc(C(=O)c3cc(Cl)ccc3O)cc12,–,"inconclusive: 35.5 µM [inhibitor, partial curve]"
Cc1c(C)n(-c2ccccc2)c2ncnc(NCCCN(C)C)c12,–,"inconclusive: 56.2 µM [inhibitor, partial curve]"
CCC(C)Nc1nc(N)c([N+](=O)[O-])c(Nc2ccccc2OC)n1 (stereo not drawn),–,"inconclusive: 44.7 µM [inhibitor, partial curve]"
Nc1cc2c(cc1C(=O)c1ccccc1)OCCO2,–,"inconclusive: 56.2 µM [inhibitor, partial curve]"
COc1cc(OC)cc(C(=O)Nc2sc3c(c2C(N)=O)CCC3)c1,inactive: -17.1%,–
COc1ccc(Cl)cc1-n1c(N)c(C(N)=O)sc1=S,–,"inconclusive: 56.2 µM [inhibitor, partial curve]"
COc1ccc2nc(S(=O)Cc3ncc(C)c(OC)c3C)[nH]c2c1 (stereo not drawn),–,active: 28.2 µM
O=C(c1ccccc1F)N1CCN(CC2CC3C=CC2C3)CC1 (stereo not drawn),–,active: 3.98 µM
COc1ccc(CNC(=O)c2c(Nc3ccc(OC)cc3OC)sc(C(=O)c3ccc(Cl)cc3)c2N)cc1,–,"inconclusive: 44.7 µM [inhibitor, partial curve]"
CCOC(=O)c1c(-c2ccccc2Cl)csc1NC(=O)CSc1nc(C)cc(=O)[nH]1,–,"inconclusive: 50.1 µM [inhibitor, partial curve]"
O=C1Nc2cc(C(=O)NCCCN3CCCC3)ccc2S/C1=C/c1ccccc1F,–,"inconclusive: 10 µM [inhibitor, partial curve]"
Cc1cccc(C(=O)OCC(=O)c2ccc(CC(=O)N3CCOCC3)s2)c1C,–,"inconclusive: 50.1 µM [inhibitor, partial curve]"
Cc1cc(-c2c(C)[nH]n(-c3ccc(Cl)cc3)c2=O)n[nH]1,–,"inconclusive: 100 µM [inhibitor, single point]"
Cc1ccc(OCC(=O)N/N=C\c2c(C)n(C)c3ccccc23)c([N+](=O)[O-])c1,–,"inconclusive: 17.8 µM [inhibitor, full curve, poor fit]"

Structure (SMILES),"activity change, negative = inhibition",Potency
Cc1cccc(N/N=C/c2ccccc2O)c1,–,"inconclusive: 79.4 µM [inhibitor, partial curve]"
COc1cc(C2NC(=O)NC(C)=C2C(=O)OC(C)(C)C)ccc1OCC(=O)O (stereo not drawn),–,"inconclusive: 89.1 µM [inhibitor, partial curve]"
O=C(OC1CCOC1=O)C1CCN(S(=O)(=O)c2ccccc2)CC1 (stereo not drawn),inactive: 5.84%,–
COc1ccc(NC(=O)Cn2c(=O)n(CC3CCCO3)c(=O)c3ccccc32)c(OC)c1 (stereo not drawn),–,inactive
[O-][n+]1c2c(c3c4non(O)c4ccc31)CCCC2,–,"inconclusive: 56.2 µM [inhibitor, partial curve]"
N#Cc1cc2c([nH]c1=S)CCCC2,–,active: 3.55 µM
Cc1cc(/C=C2/C(=O)N(C)C(=S)N2C)ccc1N1CCCC1,–,active: 14.1 µM
O=C1NC(=Nc2ccccc2)S/C1=C\c1cccn1-c1ccccc1,–,"inconclusive: 50.1 µM [inhibitor, partial curve, poor fit]"
O=C(COc1ccc2ccccc2c1)Nc1cccc(C(=O)Nc2ccccc2C(=O)O)c1,–,"inconclusive: 28.2 µM [inhibitor, single point]"
COc1ccc(-n2c(SCCNCCO)nc3sc4c(c3c2=O)CCCC4)cc1,–,"inconclusive: 56.2 µM [inhibitor, partial curve]"
CCn1nnc(NC(=O)c2sc3ccccc3c2Cl)n1,–,"inconclusive: 89.1 µM [inhibitor, single point]"
COC(C(=O)Nc1ccc(NC(=O)C(OC)c2ccccc2)cc1)c1ccccc1 (stereo not drawn),inactive: 2.76%,–
COc1ccc(-c2nnn(CC(=O)N(CCO)C(C(=O)NC3CCCC3)c3ccncc3)n2)cc1 (stereo not drawn),–,"inconclusive: 39.8 µM [inhibitor, partial curve]"
CN(C)CCN(C(=O)c1ccc2ccccc2c1)c1nc2ccc(F)cc2s1,–,"inconclusive: 63.1 µM [inhibitor, partial curve]"
Cc1nc2c(C(=O)NCCC(C)C)c[nH]n2c(=O)c1Cl,inactive: -13.5%,–
COc1cc(N=Nc2ccc(C)cc2S(N)(=O)=O)c(C)cc1N,–,active: 6.31 µM
CC[C@H](CO)Nc1nc(Nc2cccc(Cl)c2)c2ncn(C(C)C)c2n1,–,"inconclusive: 50.1 µM [inhibitor, partial curve]"
COc1ccc(C)cc1NC(=O)CC(=O)Nc1ccc2nc3n(c(=O)c2c1)CCCCC3,–,"inconclusive: 79.4 µM [inhibitor, single point]"
O=S(=O)(Nc1ccc(-n2cccc2)cc1)c1ccc(Cl)c(Cl)c1,–,"inconclusive: 56.2 µM [inhibitor, partial curve]"
ClCC1NCC(c2ccccc2Cl)c2c1[nH]c1ccccc21 (stereo not drawn),–,"inconclusive: 50.1 µM [inhibitor, partial curve]"
C#CCOCCOCCOCCNc1nc(N2CCN(C(=O)[C@H](CCCN=C(N)N)n3cc(C(N)[C@H](C)CC)nn3)CC2)nc(N2CCN(C(=O)[C@H](CCCN=C(N)N)n3cc(C(N)[C@@H](C)CC)nn3)CC2)n1 (stereo partly drawn),–,active: 79.4 µM
